{"source": "PubChem BioAssay AID1030", "about": "(National Center for Advancing Translational Sciences (NCATS), 2008)", "note": "Screen size: about 220,000 compounds; about 16,000 (7.3%) were called active. This list was built around the results that the source calls inconclusive (neither active nor inactive); the mix of calls is not that of the screen. Calls come from the whole dose curve; as a rule, active = well fitted inhibition curve with a large enough effect (not every such curve was filed as active); inconclusive = small, poorly fitted or top-dose-only effect, or another doubt; inactive = no such curve, though single readings can be large or run the other way. Potencies of inconclusive entries are left out as doubtful fits. Potency is the fitted concentration of half-maximal effect; tags give direction and shape of the fitted curve.", "data": [{"target": "Aldehyde dehydrogenase 1A1 (Homo sapiens) (UniProt P00352)", "sequence (P00352 whole entry, looked up)": "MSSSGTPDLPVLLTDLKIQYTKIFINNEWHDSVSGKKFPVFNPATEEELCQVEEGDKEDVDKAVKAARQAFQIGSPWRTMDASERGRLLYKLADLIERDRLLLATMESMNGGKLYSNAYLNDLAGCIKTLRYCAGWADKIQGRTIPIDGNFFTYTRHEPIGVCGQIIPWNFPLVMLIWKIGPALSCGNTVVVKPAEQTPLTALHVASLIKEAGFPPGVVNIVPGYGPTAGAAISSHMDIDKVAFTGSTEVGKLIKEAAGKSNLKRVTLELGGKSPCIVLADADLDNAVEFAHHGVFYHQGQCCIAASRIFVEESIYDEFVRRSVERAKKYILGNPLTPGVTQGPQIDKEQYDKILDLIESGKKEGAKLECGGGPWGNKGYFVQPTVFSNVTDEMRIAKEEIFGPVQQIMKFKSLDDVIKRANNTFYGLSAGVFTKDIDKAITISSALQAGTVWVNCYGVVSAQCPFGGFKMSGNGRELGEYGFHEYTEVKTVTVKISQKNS", "assay": "qHTS Assay for Inhibitors of Aldehyde Dehydrogenase 1 (ALDH1A1)", "conditions": "Purified ALDH1A1, NADH fluorescence, propionaldehyde substrate; series mostly up to 75.3 µM", "values": [{"smiles": "COc1ccc(CNC(=O)C2CC(c3cccc([N+](=O)[O-])c3)=NO2)cc1", "note": "(configuration not stated)", "Potency": "inconclusive [inhibitor, single point]"}, {"smiles": "CCOc1ccc(S(=O)(=O)Nc2ccccc2C(=O)NCc2ccco2)cc1", "Potency": "inconclusive [inhibitor, partial curve]"}, {"smiles": "C=CCNC(=S)N/N=C(\\C)c1ccccn1", "Potency": "inconclusive [inhibitor, partial curve]"}, {"smiles": "CCOCCCNC(=O)C(NC(=O)CC1NC(=O)NC1=O)c1ccc(Cl)cc1", "note": "(configuration not stated)", "Potency": "inactive"}, {"smiles": "CCC(=O)NC(=S)NNC(=O)c1ccc([N+](=O)[O-])cc1", "Potency": "active: 20 µM"}, {"smiles": "FC(F)(F)c1cccc(CNc2ncccc2-c2nc3cc(Cl)ccc3o2)c1", "Potency": "inconclusive [inhibitor, full curve]"}, {"smiles": "Cc1ccc(-c2nn(-c3ccccc3)cc2C2CC(c3cccs3)=NN2C(=O)CCC(=O)O)cc1", "note": "(configuration not stated)", "Potency": "inconclusive [inhibitor, single point]"}, {"smiles": "Cc1cc2cc3c(cc2nc1SCc1ccc(C(=O)O)cc1)OCCO3", "Potency": "inconclusive [inhibitor, single point]"}, {"smiles": "Cc1ccc(NC(=S)Nc2ccc(C(C)C)cc2)cc1S(=O)(=O)N1CCCCCC1", "Potency": "active: 17.8 µM"}, {"smiles": "NC(=S)N/N=C/c1ccc(-c2ccc([N+](=O)[O-])cc2)o1", "Potency": "active: 0.891 µM"}, {"smiles": "Cc1ccc(Nc2nnc(SCc3nc4ccccc4c(=O)[nH]3)s2)cc1", "Potency": "inactive"}, {"smiles": "COc1ccc(NC(=O)C2CC(=O)N(C)C(=Nc3ccc4c(c3)OCO4)S2)cc1", "note": "(configuration not stated)", "Potency": "inconclusive [inhibitor, single point]"}, {"smiles": "COc1ccc(S(=O)(=O)N(C(C)=O)c2ccc(OC(C)=O)c3ccccc23)cc1[N+](=O)[O-]", "Potency": "active: 7.08 µM"}, {"smiles": "Cc1ccc(C(=O)COC(=O)CNC(=O)C(c2ccccc2)c2ccccc2)cc1[N+](=O)[O-]", "Potency": "inconclusive [inhibitor, single point]"}, {"smiles": "Cc1ccccc1-n1c(=O)cc(N2CC(C)OC(C)C2)[nH]c1=O", "note": "(configuration not stated)", "Potency": "inconclusive [inhibitor, single point]"}, {"smiles": "O=C(Cn1nnc(-c2ccccc2NC(=O)c2ccccc2)n1)Nc1ccc2c(c1)OCCO2", "Potency": "inconclusive [inhibitor, single point]"}, {"smiles": "c1nc(N2CCC3(CC2)OCCO3)c2[nH]cnc2n1", "Potency": "inactive"}, {"smiles": "COc1ccc(-c2csc(N(CC3CCCO3)C(=O)c3cccs3)n2)cc1", "note": "(configuration not stated)", "Potency": "inconclusive [inhibitor, single point]"}, {"smiles": "O=C(CNC(=O)Cc1ccccc1)NCC(=O)OCC(=O)c1ccc(Cl)cc1", "Potency": "inactive"}, {"smiles": "O=[N+]([O-])c1ccc(C2(O)CN(c3ccccc3)C3=[N+]2CCS3)cc1", "note": "(configuration not stated)", "Potency": "inconclusive [inhibitor, single point]"}, {"smiles": "CCOC(=O)Cn1cncc1-c1ccc([N+](=O)[O-])cc1", "Potency": "inconclusive [inhibitor, single point]"}, {"smiles": "COCCOC(=O)c1sc2nc[nH]c(=O)c2c1C", "Potency": "inactive"}, {"smiles": "O=C(Nc1ccc(-c2nnn(CC(=O)N3CCN(C(=O)c4ccco4)CC3)n2)cc1)c1ccc(F)cc1", "Potency": "inconclusive [inhibitor, single point]"}, {"smiles": "CCCOc1ccc(C2c3c(oc4cc(C)c(C)cc4c3=O)C(=O)N2CCCN2CCOCC2)cc1", "note": "(configuration not stated)", "Potency": "active: 3.98 µM"}, {"smiles": "O=S1(=O)c2ccccc2N=NN1Cc1ccc(Cl)c(Cl)c1", "Potency": "active: 2.51 µM"}, {"smiles": "Cc1cccc(-n2ncc3c(NCc4ccccc4)ncnc32)c1", "Potency": "inconclusive [inhibitor, single point]"}, {"smiles": "Cc1cccc(C)c1NC(=O)CCS(=O)(=O)c1cccc2nsnc12", "Potency": "inconclusive [inhibitor, single point]"}, {"smiles": "CCOC(=O)c1sc2nc3c(cc2c1N)C(=O)CC(C)(C)C3", "Potency": "active: 0.501 µM"}, {"smiles": "COc1cccc(C(=O)NN2C(=O)C3C4C=CC(O4)C3C2=O)c1", "note": "(configuration not stated)", "Potency": "active: 14.1 µM"}, {"smiles": "C[C@@H](O)CCC[C@H](O)/C=C/[C@H]1[C@H](O)CC(=O)[C@@H]1C/C=C\\CCCC(=O)O", "Potency": "inactive"}, {"smiles": "CC(NS(=O)(=O)/C=C/c1ccccc1)C(=O)NCCc1ccc(S(N)(=O)=O)cc1", "note": "(configuration not stated)", "Potency": "inactive"}, {"smiles": "CCSc1sc(CC)cc1C=O", "Potency": "inactive"}, {"smiles": "O=C(COC(=O)c1ccccc1[N+](=O)[O-])Nc1cc(S(=O)(=O)N2CCOCC2)ccc1N1CCCC1", "Potency": "inconclusive [inhibitor, single point]"}, {"smiles": "CCc1ccc(C(=O)OCC(=O)NCC(F)(F)F)cc1", "Potency": "inactive"}, {"smiles": "O=C(NCCCO)c1ccc2[nH]c3ccccc3c2c1", "Potency": "inconclusive [inhibitor, single point]"}, {"smiles": "Cc1ccc(C(=O)c2c(NC(=O)CSc3nnc(N)s3)sc3c2CCCC3)cc1", "Potency": "inactive"}, {"smiles": "O=C1CSC(=S)N1N=C1CCCCCC1", "Potency": "inactive"}, {"smiles": "CCOC(=O)c1nn(-c2sc(C(=O)OC)c(C)c2C(=O)OC)cc1O", "Potency": "inconclusive [inhibitor, full curve, poor fit]"}, {"smiles": "Cc1cccc(S(=O)(=O)c2c(N)n(/N=C/c3ccccc3)c3nc4ccccc4nc23)c1", "Potency": "inconclusive [inhibitor, partial curve]"}, {"smiles": "Nn1cnc2c(c1=O)C1(CCCCC1)Cc1ccccc1-2", "Potency": "inconclusive [inhibitor, single point]"}, {"smiles": "CCOC(=O)C1(CC)NC(c2ccco2)C2C(=O)N(CC)C(=O)C21", "note": "(configuration not stated)", "Potency": "inactive"}, {"smiles": "Cc1cccc(NC(=O)c2sc3nc(-c4ccccc4)cn3c2C)n1", "Potency": "inconclusive [inhibitor, partial curve]"}, {"smiles": "Cc1nn(Cc2ccccc2Cl)c2sc(C(=O)Nc3ccccc3N3CCOCC3)cc12", "Potency": "inconclusive [inhibitor, single point]"}, {"smiles": "CC(C)c1ccc(NCCC(=O)c2cccs2)cc1", "Potency": "active: 2.82 µM"}, {"smiles": "CCCSCC(=O)Nc1ncc2c(n1)-c1ccccc1CC2", "Potency": "inconclusive [inhibitor, single point]"}, {"smiles": "CCC(=O)Nc1cc(Cl)ccc1C(=O)O", "Potency": "inconclusive [inhibitor, single point]"}, {"smiles": "CCN(c1ccc(NC(=O)CCNC(=O)c2ccco2)cc1)C(C)C", "Potency": "inconclusive [inhibitor, single point]"}]}]}
